{"source": "the RNAGym collection of RNA variant scans (doi:10.1093/nar/gkz1192)", "parents": {"B1": {"name": "CPEB3 Ribozyme (parent)", "chain": "UAACAGGGGGCCACAGCAGAAGCGUUCACGUCGCAGCCCCUGUCAGAUUCUGGUGAAUCUGCGAAUUCUGCUGUAUAUCUC"}}, "note": "The source gives no read counts; variants with many changes may rest on few reads.", "data": [{"variants_of": "B1", "test": "self-cleavage, relative activity (ratio to wild type); higher = more cleavage; in vitro, sequencing", "procedure,_shortened": "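Libraries of CPEB3 self-cleaving ribozyme mutants came from rounds of error-prone PCR and carried barcodes, which DNA sequencing matched to variants. In vitro transcription used T7 RNA polymerase at 37°C for 5 hours, with a further 15 min in DNase I before EDTA stopped the reaction; the ribozymes cleaved during both steps. The RNA was reverse transcribed with template switching and sequenced on Illumina. Relative activity is the cleaved/total read fraction of a variant divided by that of the unmutated ribozyme, averaged over three batches with at least 5 reads.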", "values": [{"variant": "UAACAGGCGGCCACAGCAGAAGCCUUCACGUCGCGGCCCCUGUCAGACUCUGGUGAAUCUGCGAAUUCUGCUGUAUAUCUC", "self-cleavage": 0.05}, {"variant": "UAACAGGCGGCCACAGCAGAAGCCCUCACGUCGCAGCCCCUGUCGGAUUCUGGUGAAUCUGCGAAUCCUGCUGUAUAUCUC", "self-cleavage": 0.06}, {"variant": "UAACAGGCGGCCACAGCAGAAGCUUUCAUGUCGCAGCCCCUGUCAGAUUCUGGUGAAUCUGCGAACUCUGCUGUAUAUCUC", "self-cleavage": 0.16}, {"variant": "UAACAGGCGGCCACAGCAGAAGCGAUCACGUCGCGGCCCCUGUCAGAUUCUGGUGAAUCUGCGAAUUCUGCCGUAUAUCUC", "self-cleavage": 0.17}, {"variant": "UAACAGGCGGCCACAGCAGAAGCGAUCACGUCGCAGCCCCUGUCAGAUUCUGGUGAAUCUGCGGAUUCUGCUGUAUAUCUC", "self-cleavage": 0.14}, {"variant": "UAACAGGCGGCCACAGCAGAAGCGAUCACGUCGCAGCCCCUGUCAGAUUCUGGUGAAUCUGCGAAUCCUGCCGUAUAUCUC", "self-cleavage": 0.06}, {"variant": "UAACAGGCGGCCACAGCAGAAGCGAUCACGUCGCAGCCCCUGUCAGAUUCUGGUGAAUCUGCGAAUUCUGCUGUAUACCUC", "self-cleavage": 0.2}, {"variant": "UAACAGGCGGCCACAGCAGAAGCGCUCACGUCGCAGCCCAUGUCAGAUUCUGGUGAAUCUGCGAAUUCUGCUGUAUAACUC", "self-cleavage": 0.03}, {"variant": "UAACAGGCGGCCACAGCAGAAGCGCUCACGUCGCAGCCCCUGUCAGAUUCUGGAGAAUCUGCGAAUUCUGCUGUAUAUCUC", "self-cleavage": 0.34}, {"variant": "UAACAGGCGGCCACAGCAGAAGCGUCCACGUCGCAGCCCCCGUCAGAUUCUGGCGAAUCUGCGAAUUCUGCUGUAUAUCUC", "self-cleavage": 0.05}, {"variant": "UAACAGGCGGCCACAGCAGAAGCGUCCACGUCGCAGCCCCUGUCAGACUCUGGUGAAUCUGCGAAUUCUGCUGUAUAUCUC", "self-cleavage": 0.21}, {"variant": "UAACAGGCGGCCACAGCAGAAGCGUCCACGUCGCAGCCCCUGUCAGAUUCUGGAGGAUCUGCGAAUUCUGCUCUAUAUCUC", "self-cleavage": 0.11}, {"variant": "UAACAGGCGGCCACAGCAGAAGCGUUCACGACGCAGCCCCUGUCAGAUUCAGGUGAAUCUGCGAAUUCUGCUGUAUAUCUC", "self-cleavage": 0.3}, {"variant": "UAACAGGCGGCCACAGCAGAAGCGUUCACGUCGCAGCCCCUGCCAGAUUCUAGCGAAUCUGCGAAUUCUGCCGUUUAUCUC", "self-cleavage": 0.1}, {"variant": "UAACAGGCGGCCACAGCAGAAGCGUUCACGUCGCAGCCCCUGCCAGAUUCUGGUGAAUCUGCGAAUUCUGCUGUACAUCUC", "self-cleavage": 0.36}, {"variant": "UAACAGGCGGCCACAGCAGAAGCGUUCACGUCGCAGCCCCUGUCAGAUUCCGGUGAAUCUGCUAAUUCUGCUGUAUAUCUC", "self-cleavage": 0.08}, {"variant": "UAACAGGCGGCCACAGCAGAAGCGUUCACGUCGCAGCCCCUGUCAGAUUCCGGUGAACCUGCGAAUUCUGCUGUAUAUCUA", "self-cleavage": 0.18}, {"variant": "UAACAGGUGGCCGCAGCAGAAGCGUUCACGUCGCAGCCCCUGUCAGAUUCUGGUGAGUCUGUGUAUUCUGCAGUAUAUCUC", "self-cleavage": 0.05}, {"variant": "UAACAGGUGGCCGCAGCAGAAGCGUUCACGUCGCAGCCCCUGUAAGAUUCUGGUGAAUCUGCGAAUUCUGCUGUAUAUCUC", "self-cleavage": 0.19}, {"variant": "UAACAGGUGGCCGCAGCAGAAGCGUUCACGUCGCAGCCCCUGUCAGAUUCUUGUGAAUCUGCGAAUUCUGCUUUAUAUCUC", "self-cleavage": 0.26}, {"variant": "UAACAGGUGGCCGCAGCAGAAGCGUUCACGUCGCAGCCCCUGACAGAUUCUGGUGAGUCUGCGAAUUUUGCUGUAUAUCUC", "self-cleavage": 0.18}, {"variant": "UAACAGGUGGCCGCAGCAGAAGCGUUCACGUCGCAGCCCCUGUCAGAUUCAGGUGAAUCUGCGAAUUCUGCUGUAAAUCUC", "self-cleavage": 0.08}, {"variant": "UAACAGGUGGCCUCAGCAGAUGCGUUCACGUCGCAGCCCCUGUCAGAUUCUGGUGAAUCUGCGAAUCCUGCUGUAUAUCUC", "self-cleavage": 0.06}, {"variant": "UAACAGGUGGCCUCAGCAGAAGCGUUCACGUCGCAGCCCAUGCCAGAUUCUGGUGAAUCUGCGAAUUCUGCUGUAUAUCUC", "self-cleavage": 0.05}, {"variant": "UAACAGGUGGCCUCAGCAGAAGCGUUCACUUCGCAGCCCCAGUCAGAUUCCGGUGAAUCUGCGAAUUCUGCUGUAUUUCUC", "self-cleavage": 0.04}, {"variant": "UAACAGGUGGCCUCAGCAGAAGCGUUCACGUCUCAGCCCCUGUCGGAAUCUGGUGAUUCUGCGAAUUCUGCUGUAUAUCUC", "self-cleavage": 0.16}, {"variant": "UAACAGGUGGCCUCAGCAGAAGCGUUCACGUCGCAGCCCCUGGCUGAUUCUGGUGAAUCUGCGAAUUCUGCUGUAUAACUC", "self-cleavage": 0.05}, {"variant": "UAACAGGUGGCCUCAGCAGAAGCGUUCACGUCGCAGCCCCUGUCAGAUUCUGGUGAAUCUGCGAAUUCUGCAGUAUAUCUC", "self-cleavage": 0.17}, {"variant": "UAACAGGUGGCCACCGCAUAAGCGUUCACGUCGCAGCCCCUGUCAGAUUCUGGUGAAUCUGCGAAUUCUGCUGUAUAUCUC", "self-cleavage": 0.08}, {"variant": "UAACAGGUGGCCACGGCGGAAGCGCUCACGACGCAGCCCCUGUCAGAUUCUGGUGAAUCUGCGAAUUCUGCUGUGUAUCUC", "self-cleavage": 0.24}, {"variant": "UAACAGGUGGCCACGGCAGAAGCGUUCACGUCGCAGUCCCUGUCAGAUUCUGGUGAAUCUGCGACUUCUGCUGUAUAUCUC", "self-cleavage": 0.09}, {"variant": "UAACAGGUGGCCACGGCAGAAGCGUUCACGUCGCAGCCCCCGCCAGAUUCUGGUGAAUCUGGGAAUACUGCUGUAUAUCCC", "self-cleavage": 0.07}, {"variant": "UAACAGGUGGCCACUGCUGCAGCGUUCACGUCGCAGCCCCUGUCAGAUUCUGGUGAAUCUGCGAAUUCUGCUGUAUAUCUC", "self-cleavage": 0.22}, {"variant": "UAACAGGUGGCCACUGCAGAAGCGUUCACGUCGCAGCCCCUGUGAGAUUCUGGUGAAUCAGCGAUUUCUGCUGUAUAUCUC", "self-cleavage": 0.06}]}]}
